Assay results as given in PubChem BioAssay AID1745849 (National Center for Advancing Translational Sciences (NCATS), 2022).
In all, about 2,100 compounds went through this assay and about 320 (15%) were called active. The inconclusive results got no clear call from the source; some entries with a clear call stand among them for comparison. Calls come from the whole dose curve; as a rule, active = well fitted cell-killing curve with a large enough effect; inconclusive = small, poorly fitted or top-dose-only effect, or effect the other way; inactive = flat fitted curve, though single readings scatter. Potencies beside an inconclusive call are fits to weak or partial responses and may not hold up.
% is set by controls: 0 for no effect and ±100 for the full control effect; potency is the fitted concentration of half-maximal effect; tags give direction and shape of the fitted curve.

Experiment: Viability Counterscreen for CMV-Luciferase Assay of Inhibitors of ATXN expression; note: nearly all actives have a fitted effect of over 55% in size
Details: HEK-293 CMV-luciferase cells viability, protease fluorescence, 24 h; activity change, negative = cytotoxicity: at the top concentration
Method in brief: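 In the same wells, a multiplexed format measured viability and then the CMV-luciferase signal in HEK-293 cells following 24 hr compound exposure at several concentrations. The viability substrate was Gly-Phe-AFC at 25 uM final.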
With `NC(Cc1ccc(F)cc1)c1csc(Nc2cc(NCc3ccco3)ncn2)n1` (stereo not drawn) the Potency was inconclusive: 5.62 µM [cytotoxic, partial curve, poor fit]. In the case of `COc1cccc(CN(C)C(=O)CNC(=O)c2ccc(-c3ccccc3)cc2)c1OC`, the Potency is reported as inconclusive: 8.91 µM [cytotoxic, partial curve, poor fit]. For `Cc1ccc(CN2CC(C(=O)Nc3ncc(C)s3)CC2=O)cc1` (stereo not drawn), the “activity change, negative = cytotoxicity” value was inactive: -23.1%. In the case of `CC(=O)c1cccc(-c2csc3ncnc(Sc4nnnn4C)c23)c1`, the Potency is reported as inconclusive: 5.01 µM [cytotoxic, full curve, poor fit]. With `COc1ccc(Cn2c(O)c(/C=N/NC(=O)c3cccnc3)c3ccccc3c2=O)cc1` the Potency was inconclusive: 31.6 µM [rising, partial curve]. In the case of `COc1cccc(S(=O)(=O)NCc2ccc(C(=O)Nc3cccc(Cl)c3)cc2)c1`, the Potency is reported as active: 15.8 µM. For `COC(=O)[C@H]1C[C@H](OC(=O)NC2CC2)[C@@]2(O)CN(S(=O)(=O)c3ccc(C)cc3)CC2[C@H]1C(=O)OC` (stereo partly drawn), the “activity change, negative = cytotoxicity” value was inactive: 1.18%. With `CCCOc1ccc(/C=C/C(=O)Nc2ccc([N+](=O)[O-])cc2)cc1` the Potency was inconclusive: 7.08 µM [cytotoxic, partial curve, poor fit]. For `COc1cccc(C(=O)N2N=C(c3ccccn3)CC2(O)C(F)(F)F)c1` (stereo not drawn), the Potency was inconclusive: 3.16 µM [cytotoxic, partial curve, poor fit]. In the case of `OC(c1ccccc1)(c1nc(-c2cc3ccccc3o2)cs1)C(F)(F)F` (stereo not drawn), the “activity change, negative = cytotoxicity” value is reported as inactive: 16.3% [at 57.5 µM]. In the case of `CCOC(=O)N1CCN(c2ncnc3c2[nH]c2ccc(F)cc23)CC1`, the Potency is reported as inconclusive: 28.2 µM [cytotoxic, single point]. In the case of `Oc1c(C(Nc2nccs2)c2ccc(C(F)(F)F)cc2)ccc2cccnc12` (stereo not drawn), the Potency is reported as inconclusive: 0.501 µM [cytotoxic, full curve, poor fit]. In the case of `CCc1nc2c(OCc3ccc(Cl)cc3)cccn2c1N(C=O)Cc1ccc(OC)cc1`, the Potency is reported as inconclusive: 39.8 µM [cytotoxic, single point]. In the case of `N/C(=N\NC(=O)c1sccc1OCc1ccc(Cl)cc1Cl)c1ccccn1`, the Potency is reported as inconclusive: 8.91 µM [cytotoxic, partial curve]. With `COc1ccc2nc(C)cc(NCc3ccc(F)cc3)c2c1` the “activity change, negative = cytotoxicity” value was inactive: 29.7%. With `O=C(CN1CCN(C(=O)c2ccc(-c3nc4ccccc4s3)o2)CC1)Nc1ccccc1Cl` the Potency was inconclusive: 3.55 µM [cytotoxic, single point]. For `O=C(c1ccco1)N1CCN(c2ncnc3c2[nH]c2ccc(Br)cc23)CC1`, the Potency was inconclusive: 25.1 µM [cytotoxic, single point]. In the case of `CC(=O)c1c(C)[nH]c(C(=O)Nc2nc(-c3ccc(-c4ccccc4)cc3)cs2)c1C`, the Potency is reported as active: 11.2 µM. In the case of `O=C(Nc1nc(-c2ccc(S(=O)(=O)N3CCOCC3)cc2)cs1)c1ccccc1`, the “activity change, negative = cytotoxicity” value is reported as inactive: -11.8%. For `O=C(CN1CC(c2ccccc2)CC1=O)N/N=C/c1cc(Br)ccc1O` (stereo not drawn), the Potency was inconclusive: 5.62 µM [cytotoxic, full curve, poor fit]. With `O=C(Nc1ccc(Br)cc1)c1cccc(OC(=S)N2CCOCC2)c1` the “activity change, negative = cytotoxicity” value was inactive: 12.8%. In the case of `Cc1ccccc1C(=O)/C(C#N)=N/Nc1c(C)n(C)n(-c2ccccc2)c1=O`, the Potency is reported as active: 10 µM. For `S=C(NCc1ccc(Cl)cc1Cl)NC1CCCCC1`, the “activity change, negative = cytotoxicity” value was inactive: -26.8%. With `Cc1ccnc(NC(=O)CCCc2c[nH]c3ccccc23)c1` the “activity change, negative = cytotoxicity” value was inactive: -25.6%. In the case of `COc1cc2c(C(=O)N3CCOCC3)c(CSc3ccccc3)n(C)c2cc1Br`, the “activity change, negative = cytotoxicity” value is reported as inactive: 3.39% [at 57.5 µM]. With `CCOc1ccc(-n2c(SCc3ccc([N+](=O)[O-])cc3)nnc2-c2ccccc2)cc1` the Potency was inconclusive: 22.4 µM [cytotoxic, single point]. With `Oc1c(C(c2ccccn2)N2CCCCC2)cc(Cl)c2cccnc12` (stereo not drawn) the Potency was inconclusive: 20 µM [cytotoxic, partial curve, poor fit]. For `CO[C@@]12[C@@H]3N[C@@H]3CN1C1=C(C(=O)C(N)=C(C)C1=O)[C@@H]2COC(N)=O`, the “activity change, negative = cytotoxicity” value was inactive: 22.6%. With `S=C(NC1CCCCC1)N1CCOCCOCCN(C(=S)NC2CCCCC2)CCOCCOCC1` the Potency was inconclusive: 3.55 µM [cytotoxic, single point]. For `Cc1cc(NC(=O)CSc2nc3c(sc4ccccc43)c(=O)n2CCCN2CCOCC2)n[nH]1`, the Potency was inconclusive: 8.91 µM [cytotoxic, partial curve]. For `O=[N+]([O-])c1ccc(O)c(/C=N/Nc2ccccn2)c1`, the Potency was inconclusive: 8.91 µM [cytotoxic, partial curve, poor fit]. With `CC(=O)Nc1ccc(Nc2c3ccccc3nc3ccccc23)cc1` the Potency was active: 8.91 µM. With `COc1cc(NS(=O)(=O)c2ccc(N/C=C(\C#N)c3nc4cc(Cl)ccc4o3)cc2)nc(OC)n1` the Potency was active: 14.1 µM. In the case of `Cc1ccc(C(C)C)c(OCc2ccc(C(=O)N/N=C/c3ccc(O)c(O)c3)cc2)c1`, the Potency is reported as inconclusive: 1.78 µM [cytotoxic, partial curve, poor fit]. With `COc1ccc(Oc2c(Cl)cnn(-c3ccc(C)cc3)c2=O)cc1` the Potency was inconclusive: 17.8 µM [cytotoxic, single point]. In the case of `c1nc(CCO[C@H]2CCCCO2)cc2cc3c(cc12)OCO3`, the “activity change, negative = cytotoxicity” value is reported as inactive: -23.6%. With `NC(c1csc(NC(=O)c2cccc(OC(F)(F)F)c2)n1)c1ccccc1Cl` (stereo not drawn) the Potency was inconclusive: 22.4 µM [cytotoxic, single point]. In the case of `COc1ccc(-c2c[n+]3c4n2CCCCC4=C(c2ccc(Br)cc2)C3)cc1`, the “activity change, negative = cytotoxicity” value is reported as inactive: -20%. In the case of `COc1ccc(NS(=O)(=O)c2ccc(C(=O)Nc3c(C)n(C)n(-c4ccccc4)c3=O)cc2)cc1`, the “activity change, negative = cytotoxicity” value is reported as inactive: 6.71%. In the case of `C/C(=N\NC(=O)C1CCCN(S(=O)(=O)c2ccccc2)C1)c1ccccn1` (stereo not drawn), the Potency is reported as inconclusive: 1.78 µM [cytotoxic, full curve, poor fit]. With `O=C1C=CCC(/C=C/c2ccccc2)O1` (stereo not drawn) the Potency was active: 31.6 µM. In the case of `CCCCCCc1cc2cc(S(=O)(=O)c3ccc(Cl)cc3)c(=O)oc2cc1O`, the Potency is reported as inconclusive: 1.58 µM [rising, partial curve]. In the case of `CCCCC(=O)NC(c1ccc(Cl)cc1)c1ccc2cccnc2c1O` (stereo not drawn), the Potency is reported as inconclusive: 1.58 µM [cytotoxic, full curve, poor fit].
